Data taken from the supplement of paper PMC9174493.
The list shows a part of the results. Single values of this set are uncertain. Values with irradiation are relative to irradiated vehicle.

What was measured:
A549-Dual [1] = test: NF-kB reporter (SEAP) activity, viability-corrected, relative to vehicle (fold change vs vehicle); higher = more activation of STING-IRF / NF-kB immune response reporter; conditions: 10 µM
A549-Dual [2] = test: ISRE reporter (Lucia luciferase) activity, viability-corrected, relative to vehicle (fold change vs vehicle); higher = more activation of STING-IRF / NF-kB immune response reporter; conditions: 10 µM
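Throughout, for NF-kB reporter (SEAP) activity, viability-corrected, relative to vehicle: viability correction based on the alamar blue assay, with concentrations leaving 10% survival or less dropped.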

SMILES | NF-kB reporter (A549-Dual [1]; irradiation: 8 Gy/4 fr) | NF-kB reporter (A549-Dual [1]; irradiation: none) | ISRE reporter (A549-Dual [2]; irradiation: 8 Gy/4 fr) | ISRE reporter (A549-Dual [2]; irradiation: none)
O=C1CCc2cc(OCCCCc3nnnn3C3CCCCC3)ccc2N1 [Cilostazol] | 0.63 | 0.925 | 0.577 | 0.604
CN(C)CCOC(=O)COc1ccc(Cl)cc1.Cl [Meclofenoxate (Centrophenoxine) HCl] | 0.442 | 0.577 | 0.488 | 0.478
CS(=O)(=O)O.O=C(OC1CC2CC3CC(C1)N2CC3=O)c1c[nH]c2ccccc12 (stereo unspecified) [Dolasetron Mesylate] | 0.738 | 1.54 | 0.849 | 0.917
O=c1c(OC2OC(CO)C(O)C(O)C2O)c(-c2ccc(O)c(O)c2)oc2cc(O)cc(O)c12 (stereo unspecified) [Hyperoside] | 1.04 | 0.777 | 0.95 | 0.565
CN(C/C=C/C#CC(C)(C)C)Cc1cccc2ccccc12.Cl [Terbinafine HCl] | 0.736 | 1.01 | 0.976 | 0.861
O=C(O)C1OC(Oc2cc3oc(-c4ccc(O)cc4)cc(=O)c3c(O)c2O)C(O)C(O)C1O (stereo unspecified) [Scutellarin] | 1.23 | 0.822 | 0.959 | 0.625
CNC1C(OC2OC(CO)C(N)C(O)C2O)OC2CC(N)C(OC3C(N)CC(N)C(O)C3O)OC2C1O.O=S(=O)(O)O (stereo unspecified) [Apramycin Sulfate] | 0.908 | 1.47 | 0.779 | 1.55
CCOCCn1c(C2CCN(CCc3ccc(C(C)(C)C(=O)O)cc3)CC2)nc2ccccc21 [Bilastine] | 0.454 | 0.465 | 0.555 | 0.487
CC1(C)SC2C(NC(=O)C(NC(=O)N3CCNC3=O)c3ccccc3)C(=O)N2C1C(=O)O.[NaH] (stereo unspecified) [Azlocillin sodium salt] | 0.848 | 1.24 | 0.765 | 0.743
O=C([O-])CN(CCN(CC(=O)[O-])CC(=O)O)CC(=O)[O-].[Na+].[Na+].[Na+] [Edetate Trisodium] | 1.1 | 0.586 | 1.24 | 0.842
CC(O)C1C(=O)N2C(C(=O)O)=C(SC3CNC(C(=O)N(C)C)C3)C(C)C12.O.O.O (stereo unspecified) [Meropenem Trihydrate] | 0.646 | 0.756 | 0.701 | 0.582
O=C(O)/C=C/c1ccc(O)c(O)c1 [Caffeic Acid] | 1.02 | 1.01 | 1.06 | 0.935
CCCCOC(=O)CCCCCCCCC(=O)OCCCC [Dibutyl sebacate] | 0.84 | 0.745 | 0.749 | 0.529
CC1(C)SC2C(NC(=O)Cc3ccccc3)C(=O)N2C1C(=O)[O-].[Na+] (stereo unspecified) [Penicillin G Sodium] | 0.876 | 0.939 | 1.05 | 0.827
Cc1cc(C)nc(NS(=O)(=O)c2ccc(N)cc2)n1 [Sulfamethazine] | 0.795 | 0.843 | 0.928 | 0.793
COC(=O)N(C)c1c(N)nc(-c2nn(Cc3ccccc3F)c3ncccc23)nc1N [Riociguat (BAY 63-2521)] | 0.649 | 1.19 | 0.568 | 0.777
CO/N=C(\C(=O)NC1C(=O)N2C(C(=O)OC(C)OC(C)=O)=C(COC(N)=O)CSC12)c1ccco1 (stereo unspecified) [Cefuroxime axetil] | 0.854 | 0.855 | 0.794 | 0.617
Nc1ccc(S(=O)(=O)Nc2ccnn2-c2ccccc2)cc1 [Sulfaphenazole] | 0.646 | 0.926 | 0.723 | 0.852
CNC1C(OC2C(OC3C(O)C(O)C(NC(=N)N)C(O)C3NC(=N)N)OC(C)C2(O)C=O)OC(CO)C(O)C1O.CNC1C(OC2C(OC3C(O)C(O)C(NC(=N)N)C(O)C3NC(=N)N)OC(C)C2(O)C=O)OC(CO)C(O)C1O.O=S(=O)(O)O.O=S(=O)(O)O.O=S(=O)(O)O (stereo unspecified) [Streptomycin sulfate] | 1.01 | 0.958 | 0.929 | 1.04
CC1C/C=C/C=C/C=C/C=C/C(OC2OC(C)C(O)C(N)C2O)CC2OC(O)(CC(O)CC3OC3/C=C/C(=O)O1)CC(O)C2C(=O)O (stereo unspecified) [Natamycin] | 0.78 | 0.967 | 0.792 | 0.787
CC12CCC3c4ccc(OC(=O)c5ccccc5)cc4CCC3C1CCC2O (stereo unspecified) [Estradiol Benzoate] | 0.703 | 1.38 | 0.522 | 0.9
Clc1ccc(CCC(Cn2ccnc2)Sc2c(Cl)cccc2Cl)cc1 (stereo unspecified) [Butoconazole] | 0.425 | 0.729 | 0.175 | 0.29
COC1(NC(=O)Cc2cccs2)C(=O)N2C(C(=O)O)=C(COC(N)=O)CSC21 (stereo unspecified) [Cefoxitin] | 0.685 | 0.965 | 0.725 | 0.829
COc1cc(S(=O)(=O)[O-])ccc1O.[K+] [Sulfogaiacol] | 1.64 | 0.796 | 1.77 | 0.814
NS(=O)(=O)c1cc2c(cc1Cl)N=CNS2(=O)=O [Chlorothiazide] | 0.972 | 0.872 | 0.847 | 0.732

SMILES | NF-kB reporter (A549-Dual [1]; irradiation: 8 Gy/4 fr) | NF-kB reporter (A549-Dual [1]; irradiation: none) | ISRE reporter (A549-Dual [2]; irradiation: 8 Gy/4 fr) | ISRE reporter (A549-Dual [2]; irradiation: none)
Cc1cccc(C)c1OCC(C)N.Cl (stereo unspecified) [Mexiletine HCl] | 0.995 | 0.794 | 0.943 | 0.711
CCC(C)C1NC(=O)C(CCCNC(=N)N)NC(=O)C(CC(=O)O)NC(=O)C(CCSC)NC(=O)C(CCCNC(=N)N)NC(=O)CNC(=O)CNC(=O)C(Cc2ccccc2)NC(=O)C(NC(=O)C(CO)NC(=O)C(CO)NNC(CCCNC(=N)N)C(=O)NC(CCCNC(=N)N)C(=O)C(=O)C(CC(C)C)NNC(C=O)CO)CSSCC(C(=O)NC(CC(N)=O)C(=O)NC(CO)C(=O)NC(Cc2ccccc2)C(=O)C(=O)C(CCCNC(=N)N)NC(=O)C(Cc2ccc(O)cc2)NO)NC(=O)CNC(=O)C(CC(C)C)NC(=O)CNC(=O)C(CO)NC(=O)C(CCC(N)=O)NC(=O)C(C)NC(=O)CNC1=O (stereo unspecified) [Carperitide Acetate] | 1.23 | 0.689 | 1.28 | 0.719
CCOC(CN1CCN(CC(C)C(=O)c2ccccc2)CC1)c1ccccc1.Cl.Cl (stereo unspecified) [Eprazinone 2HCl] | 0.9 | 1.41 | 0.896 | 0.877
Cc1nc[nH]c1CN1CCc2c(c3ccccc3n2C)C1=O.Cl [Alosetron Hydrochloride] | 0.64 | 0.882 | 0.501 | 0.592
CNC(CC(C)C)C(=O)NC1C(=O)NC(CC(N)=O)C(=O)NC2C(=O)NC3C(=O)NC(C(=O)NC(C(=O)O)c4cc(O)cc(O)c4-c4cc3ccc4O)C(O)c3ccc(c(Cl)c3)Oc3cc2cc(c3OC2OC(CO)C(O)C(O)C2OC2CC(C)(N)C(O)C(C)O2)Oc2ccc(cc2Cl)C1O (stereo unspecified) [Vancomycin] | 0.84 | 1.03 | 0.799 | 0.831
NC(=O)c1cc[n+](CC2=C(C(=O)[O-])N3C(=O)C(NC(=O)C(c4ccccc4)S(=O)(=O)[O-])C3SC2)cc1.[Na+] (stereo unspecified) [Cefsulodin sodium] | 0.823 | 0.905 | 0.801 | 0.734
Nc1nc(O)c2nc(O)cnc2n1.O [Xanthopterin Hydrate] | 1.3 | 0.656 | 1.33 | 0.595
C[C@H](O)C(=O)O [L-Lactic acid] | 1.1 | 0.824 | 0.888 | 0.825
O=C(O)/C=C/c1ccc(Cn2ccnc2)cc1 [Ozagrel] | 1.06 | 0.59 | 1.17 | 0.758
CC(C)(Oc1ccc(Cl)cc1)C(=O)O [Clofibric Acid] | 1.22 | 0.82 | 1.02 | 0.656
COc1ccc2[nH]c(S(=O)Cc3ncc(C)c(OC)c3C)nc2c1 (stereo unspecified) [Omeprazole] | 0.829 | 0.744 | 0.717 | 0.688
O.O.O.O.O.OCC1OC(OCC2OC(OC3(CO)OC(CO)C(O)C3O)C(O)C(O)C2O)C(O)C(O)C1O [D-(+)-Raffinose pentahydrate] | 0.812 | 0.821 | 0.817 | 0.63
Cl.Cl.OCCN1CCN(CC/C=C2/c3ccccc3Sc3ccc(C(F)(F)F)cc32)CC1 [Flupenthixol dihydrochloride] | 0.404 | 0.769 | 0.415 | 1.01
COC(=O)C1=C(C)NC(C)=C(C(=O)OC(C)(C)CN(C)CCC(c2ccccc2)c2ccccc2)C1c1cccc([N+](=O)[O-])c1 (stereo unspecified) [Lercanidipine] | 0.512 | 0.605 | 0.547 | 1.45
CCCOc1ccc2c(c1)CCC1C2CCC2(C)C(OC)CCC12 (stereo unspecified) [Promestriene] | 0.663 | 0.904 | 0.566 | 0.635
c1coc(CNc2ncnc3nc[nH]c23)c1 [Kinetin] | 0.829 | 0.548 | 0.811 | 0.568
Cl.O=C1OC(CN2CCOCC2)CN1/N=C/c1ccc([N+](=O)[O-])o1 (stereo unspecified) [Furaltadone HCl] | 0.787 | 0.839 | 0.876 | 0.719
CN1CC(=O)NC1=N [Creatinine] | 0.744 | 0.694 | 0.748 | 0.665
COc1ccc(-c2cc(=O)c3c(O)cc(O)cc3o2)cc1O [Diosmetin] | 0.836 | 1.18 | 0.655 | 0.842
COCCCOc1cc(CC(CC(N)C(O)CC(C(=O)NCC(C)(C)C(N)=O)C(C)C)C(C)C)ccc1OC.COCCCOc1cc(CC(CC(N)C(O)CC(C(=O)NCC(C)(C)C(N)=O)C(C)C)C(C)C)ccc1OC.O=C(O)/C=C/C(=O)O (stereo unspecified) [Aliskiren Hemifumarate] | 1.03 | 1.07 | 1.06 | 0.865
CC1=CC(O)CC(C)(C)C1/C=C/C(C)=C/C=C/C(C)=C/C=C/C=C(C)/C=C/C=C(C)/C=C/C1=C(C)CC(O)CC1(C)C (stereo unspecified) [lutein] | 0.387 | 0.501 | 0.503 | 0.544
Cc1cn(C2CC(O)C(CO)O2)c(=O)[nH]c1=O (stereo unspecified) [Thymidine] | 0.501 | 0.731 | 0.561 | 0.623
Nc1nc(NC2CC2)c2ncn(C3C=CC(CO)C3)c2n1.Nc1nc(NC2CC2)c2ncn(C3C=CC(CO)C3)c2n1.O=S(=O)(O)O (stereo unspecified) [Abacavir sulfate] | 0.758 | 0.909 | 0.742 | 1.01
Cc1nnc(SCC2=C(C(=O)O)N3C(=O)C(NC(=O)Cn4cnnn4)C3SC2)s1 (stereo unspecified) [Cefazolin] | 0.845 | 1.04 | 0.698 | 0.854
